From PubChem BioAssay AID2451 (National Center for Advancing Translational Sciences (NCATS), 2010)
Where “and” joins values, the source holds several entries; their conditions need not be identical. Equal entries are not always repeated. Out of some 290,000 compounds screened, about 2,100 (0.72%) were called active. Inconclusive results, whose numbers are uncertain, are shown with a selection of clear calls. Calls come from the whole dose curve; as a rule, active = well fitted inhibition curve with a large enough effect; inconclusive = small, poorly fitted or top-dose-only effect, or effect the other way; inactive = flat fitted curve, though single readings scatter. Where the call is inconclusive, the potency comes from a doubtful curve fit.

Molecular target: Fructose-bisphosphate aldolase (Giardia intestinalis (strain ATCC 50803 / WB clone C6)) (UniProt A8B2U2)
Experiment: qHTS Assay for Inhibitors of Fructose-1,6-bisphosphate Aldolase from Giardia Lamblia; note: nearly all actives have a fitted effect of over 55% in size
Conditions: purified Giardia FBPA; activity, negative = inhibition: at 59.6 µM (top of the series) unless noted
Summary of the method: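 40 nM FBPA preincubated 10 min at RT with compound (up to 57.5 uM final), then substrate plus GAPDH/TPI/NAD/arsenate coupling and diaphorase/resazurin added. Fluorescence read after 20 min at RT, 525/598 nm.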
% is set by controls: 0 for no effect and ±100 for the full control effect; potency is the fitted concentration of half-maximal effect; tags give direction and shape of the fitted curve.

Sequence of UniProt A8B2U2 (A8B2U2 whole entry, looked up): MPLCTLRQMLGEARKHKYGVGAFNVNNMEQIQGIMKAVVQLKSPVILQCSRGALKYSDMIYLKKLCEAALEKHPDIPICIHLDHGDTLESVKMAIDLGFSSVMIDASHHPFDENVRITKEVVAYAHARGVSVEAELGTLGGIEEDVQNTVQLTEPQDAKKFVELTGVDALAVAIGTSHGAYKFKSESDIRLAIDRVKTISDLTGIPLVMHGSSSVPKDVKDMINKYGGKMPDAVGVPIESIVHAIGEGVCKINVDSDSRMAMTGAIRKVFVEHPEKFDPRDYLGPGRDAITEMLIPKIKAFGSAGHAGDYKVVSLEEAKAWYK

SMILES | activity, negative = inhibition | Potency
CC(=O)S[C@H]1CC2=CC(=O)CC[C@@]2(C)[C@H]2CC[C@@]3(C)[C@H](CC[C@]34CCC(=O)O4)[C@@H]12 | inactive: 3.69% [at 21.7 µM] | –
Cc1ccc2cc(C(c3nnnn3C3CCCC3)N3CCN(c4ccc(F)cc4)CC3)c(=O)[nH]c2c1 (stereo unspecified) | – | inconclusive: 19.9 µM [inhibitor, partial curve]
O=C(O)c1ccc(-c2nc(-c3ccccc3Cl)cs2)cc1 | – | inconclusive: 17.7 µM [activator, single point]
O=C(CNCc1cccs1)NC12CC3CC(CC(C3)C1)C2 | – | inconclusive: 19.9 µM [inhibitor, partial curve]
CO[C@H]1C=CO[C@@]2(C)Oc3c(C)c(O)c4c(O)c(c(C=NN5CCN(C)CC5)c(O)c4c3C2=O)NC(=O)C(C)=CC=C[C@H](C)[C@H](O)[C@@H](C)[C@@H](O)[C@@H](C)[C@H](OC(C)=O)[C@@H]1C | – | inconclusive: 1.58 µM [inhibitor, full curve]
COc1ccc(SCCN2CCN(CCc3ccccc3)CCC2=O)cc1 | inactive: -1.35% | –
O=C1C2C3CCC(CC3)C2C(=O)N1c1ccccc1 (stereo unspecified) | – | inconclusive: 39.8 µM [activator, single point]
O=C(NCc1ccco1)/C(=C\c1ccco1)NC(=O)c1ccco1 | – | inconclusive: 31.5 µM [inhibitor, single point]
Clc1ccc(Cl)c(OCCCCN2CCCCC2)c1 | – | inconclusive: 17.8 µM [inhibitor, partial curve]
N/C(=N\NC(=O)c1ccccc1Cl)c1cc2ccccc2oc1=O | – | inconclusive: 44.6 µM [inhibitor, single point]
Cc1ccccc1C1=NCC(=O)N(CC(=O)NCc2ccco2)c2sc3c(c21)CCCC3 | inactive: 1.16% | –
CC(C)C[C@@H](CC(=O)N[C@H](CC(=O)N[C@@H]1CCNC[C@H]1C(=O)N[C@H](CC(=O)N[C@@H](CCC(=O)O)CC(=O)O)Cc1c[nH]c2ccccc12)C(C)C)NC(=O)[C@@H]1CCCC[C@H]1N | – | inconclusive: 19.9 µM [inhibitor, single point]
Cn1c2c(c(=O)n(C)c1=O)[C@@]1(C(=O)Nc3ccccc31)C(C#N)=C(N)O2 | – | inconclusive: 1.12 µM [inhibitor, full curve]
O=C(NC1CCCCC1)c1ccc(-c2cccc([N+](=O)[O-])c2)o1 | inconclusive: 50% [activator] | –
NC1=C(O)C(=O)C(c2ccccc2)O1 (stereo unspecified) | – | active: 15.8 µM
COc1cc(C2C(C#N)=C(N)OC3=C2C(=O)CC(C)(C)C3)c([N+](=O)[O-])cc1OC (stereo unspecified) | – | inconclusive: 7.06 µM [inhibitor, partial curve]
Cc1ccc(C(=O)/C=C/Nc2ccccc2C(N)=O)o1 | inactive: -12.4% | –
CCOC(=O)c1c(C)oc2c1c(CN1CCN(CCO)CC1)c(O)c1ccccc12 | – | inconclusive: 17.7 µM [inhibitor, partial curve]
O=C(Oc1ccc([N+](=O)[O-])cc1)c1ccc2ccccc2n1 | – | inconclusive: 25.1 µM [inhibitor, partial curve]
O=c1cc(CSc2ccc([N+](=O)[O-])cc2)nc2sccn12 | inactive: -3.92% | –
O=C(CSc1ccc(-c2ccccn2)nn1)c1ccc([N+](=O)[O-])cc1 | – | inconclusive: 17.7 µM [inhibitor, single point]

SMILES | activity, negative = inhibition | Potency
CC1(C)Cc2c(sc3[nH]c(=S)n(Cc4ccccc4)c(=O)c23)CO1 | – | inconclusive: 19.9 µM [activator, single point]
CC(C)(C)c1cc(O)c(C(C)(C)C)cc1O | – | inconclusive: 4.46 µM [inhibitor, full curve, poor fit]
CC(C)(C)c1ccc(C(=O)Nc2sc3c(c2C(=O)O)CCC3)cc1 | – | inconclusive: 15.8 µM [inhibitor, partial curve]
O=C(CCCN1C(=O)/C(=C/c2cccs2)SC1=S)Nc1ccc(O)c(C(=O)O)c1 | – | inconclusive: 17.7 µM [activator, single point]
O=C(c1cc(COc2ccc(F)cc2Cl)on1)N1CCCCC1c1cccnc1 (stereo unspecified) | inactive: 7.89% | –
Cc1c(O)ccc(/C=N/Nc2ncccc2[N+](=O)[O-])c1O | inactive: 15.9% | –
C=C(C)CNC(=S)N/N=C/c1ccc([N+](=O)[O-])cc1 | inactive: -18.6% | –
CCN(CC)c1ccc(NC(=O)C2CCCN(S(=O)(=O)c3cccnc3)C2)c(C)c1 (stereo unspecified) | – | inconclusive: 17.7 µM [inhibitor, single point]
CN1CCN(c2nc(-c3ccc(C(C)(C)C)cc3)nc3ccccc23)CC1 | – | inconclusive: 35.5 µM [inhibitor, partial curve]
COc1ccccc1N1CCN(C2CCN(C(=O)c3cccc(F)c3)CC2)CC1 | – | inconclusive: 15.8 µM [inhibitor, partial curve]
CC(=O)c1cccc(N(C(=O)CNC(=O)c2ccco2)C(C(=O)NC2CCCC2)c2ccc(C)o2)c1 (stereo unspecified) | inactive: 2.32% | –
COc1cc(NS(=O)(=O)c2ccc(C)cc2)c2ncccc2c1 | – | inconclusive: 14.1 µM [inhibitor, partial curve] and inconclusive: 15.8 µM [activator, partial curve]
Fc1ccc(NC(=S)NC2CC3CCC(C2)N3Cc2ccco2)cc1 (stereo unspecified) | inactive: 0.666% | –
Cc1cc(-c2n[nH]c(=S)n2-c2ccc(F)cc2)nn1C | – | inconclusive: 19.9 µM [inhibitor, partial curve]
CCN(CC)S(=O)(=O)c1ccc(/C=C/C(=O)OCC(=O)c2c(N)n(C)c(=O)n(C)c2=O)cc1 | inactive: -3.49% | –
O=c1[nH]c(CN2CCc3ccccc32)nc2scc(-c3cccs3)c12 | inactive: 2.61% | –
CS(=O)c1ccc(-n2c(=O)n(Cc3ccccc3)c(=O)c3[nH]cnc32)cc1 (stereo unspecified) | – | inconclusive: 15.8 µM [inhibitor, partial curve]
COc1cc(C(=O)Nc2cccnc2)cc(OC)c1OC | – | inconclusive: 35.5 µM [inhibitor, single point]
Cn1c(NC(=O)/C=C/c2ccc(Cl)c(Cl)c2)cc(=O)n(C)c1=O | inactive: 0.829% | –
CCNc1nc(NC(C)C)nc(NS(=O)(=O)c2ccc(Cl)cc2)n1 | – | inconclusive: 28.2 µM [inhibitor, single point]
